Laboratory results taken from PubChem BioAssay AID881 (National Center for Advancing Translational Sciences (NCATS), 2007).
Several values for one entry are separate records, joined by “and”; a condition that tells them apart may be missing. Identical values can stand only once. About 610 (0.55%) of roughly 110,000 compounds were called active. Inconclusive means that the source gave no clear call. Such entries were picked first, then a sample of the others. The call rests on the fitted dose curve; in most records, active means well fitted inhibition curve with a large enough effect; inconclusive means small, poorly fitted or top-dose-only effect; inactive means no such curve, though single readings can be large or run the other way. A potency beside an inconclusive call is a rough fit, not a confirmed value.

Each compound was assayed against Polyunsaturated fatty acid lipoxygenase ALOX15B (Homo sapiens) (UniProt O15296) (assay: qHTS Assay for Inhibitors of 15-hLO-2 (15-human lipoxygenase 2)). Settings: purified 15hLO-2, xylenol orange hydroperoxide absorbance; activity change, negative = inhibition: at 57.1 µM (top of the series) unless noted.
Summary of the method: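 Screening format was qHTS against 50 nM purified 15hLO-2 in Hepes pH 7.5 with detergent. Activity follows hydroperoxide formation from 45 uM arachidonic acid, measured as 573:405 nm absorbance ratio of the ferric-xylenol orange complex.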
Further: nearly all actives have a fitted effect of over 60% in size.
On the % scale 0 is the no-effect control and ±100 the full control effect; potency means the concentration at half of the fitted maximal effect; tags describe the fitted curve by direction and shape.

Chain of UniProt O15296 (O15296 whole entry, looked up): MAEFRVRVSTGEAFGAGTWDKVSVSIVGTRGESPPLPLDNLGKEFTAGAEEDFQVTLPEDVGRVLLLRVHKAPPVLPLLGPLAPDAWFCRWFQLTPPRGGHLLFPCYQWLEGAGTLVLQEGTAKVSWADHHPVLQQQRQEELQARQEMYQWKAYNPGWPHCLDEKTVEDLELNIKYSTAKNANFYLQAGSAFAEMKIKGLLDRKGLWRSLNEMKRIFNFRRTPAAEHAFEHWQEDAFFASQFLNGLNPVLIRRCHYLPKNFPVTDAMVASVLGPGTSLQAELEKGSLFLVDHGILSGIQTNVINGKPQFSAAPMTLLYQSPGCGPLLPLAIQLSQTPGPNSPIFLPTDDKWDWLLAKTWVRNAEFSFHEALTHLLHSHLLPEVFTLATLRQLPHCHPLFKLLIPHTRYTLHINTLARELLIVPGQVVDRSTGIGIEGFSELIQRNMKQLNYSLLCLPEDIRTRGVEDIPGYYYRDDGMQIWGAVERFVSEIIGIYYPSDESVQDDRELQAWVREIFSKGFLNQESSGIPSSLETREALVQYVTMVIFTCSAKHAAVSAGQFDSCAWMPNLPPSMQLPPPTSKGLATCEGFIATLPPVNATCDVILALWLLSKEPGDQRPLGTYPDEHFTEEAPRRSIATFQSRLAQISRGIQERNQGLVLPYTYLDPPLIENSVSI

SMILES	Potency	activity change, negative = inhibition
C[C@H](NC(=O)/C(C#N)=C/c1ccc(O)c(O)c1)c1ccccc1	inconclusive: 15.8 µM [inhibitor, partial curve, poor fit]	
CC(C)Oc1cccc(C(=O)Nc2ccccc2N2CCOCC2)c1		inactive: 4.15%
COc1ccc(NC(=O)N2CCC(O)(c3cccnc3)CC2)c(OC)c1		inactive: 2.75%
CCOc1ccc(C2C(C(=O)c3ccco3)=C(O)C(=O)N2Cc2cccnc2)cc1OC (stereo unspecified)		inactive: -6.79%
O=C(c1ccc(Br)o1)N1CCN(c2ccccn2)CC1	inconclusive: 7.94 µM [inhibitor, single point]	
CCOc1ccc(C2CC(=O)c3c([nH]c(C(=O)OC)c3C)C2)cc1OC (stereo unspecified)	inconclusive: 39.8 µM [inhibitor, single point]	
Cc1cccc(S(=O)(=O)C(C#N)c2nc3ccccc3nc2N2CC(C)OC(C)C2)c1 (stereo unspecified)	inconclusive: 31.6 µM [inhibitor, single point]	
CCCCCCC(=O)N(O)C1CC(=O)N(c2ccccc2)C1=O (stereo unspecified)	inconclusive: 3.16 µM [inhibitor, partial curve]	
O=C(N/N=C\c1ccc(F)cc1)c1cc(OCC(F)(F)F)ccc1OCC(F)(F)F		inactive: -8.2%
Oc1ccc(O)c2c(O)cccc12	active: 12.6 µM	
CCCN=Cc1sc2ccc(OCC)cc2c1O	inconclusive: 25.1 µM [inhibitor, single point]	
COC(=O)/C(=C/c1c[nH]c2ccccc12)[N+](=O)[O-]	inconclusive: 25.1 µM [inhibitor, partial curve]	
Cc1cc(C)cc(OCC(=O)Nc2nonc2NC(=O)COc2cc(C)cc(C)c2)c1	inconclusive: 25.1 µM [inhibitor, single point]	
CC(C)N1CCN(c2ccc(OC[C@@H]3CO[C@@](Cn4cncn4)(c4ccc(Cl)cc4Cl)O3)cc2)CC1		inactive: 32.7% [at 25.6 µM]
Cc1ccc(C)c(NC(=S)NCc2ccc3c(c2)OCO3)c1	inconclusive: 25.1 µM [inhibitor, partial curve]	
COc1ccc(-c2cc(-c3c(O)c(OC)c4occc4c3OC)[nH]n2)cc1OC	inconclusive: 0.126 µM [inhibitor, full curve, poor fit]	
Cc1cc(-c2ccc(N=Nc3cc(S(=O)(=O)O)c4ccccc4c3N)c(C)c2)ccc1N=Nc1cc(S(=O)(=O)O)c2ccccc2c1N	active: 3.16 µM	
C=CCn1c(SCC(=O)NC2CCCC2)nc2scc(-c3ccco3)c2c1=O	inconclusive: 25.1 µM [inhibitor, partial curve]	
O=C(O)CCC(C(=O)O)n1c(O)c(C2=c3ccccc3=NC2=O)sc1=S (stereo unspecified)	inconclusive: 25.1 µM [inhibitor, partial curve]	
CCOC(=O)/C=c1\s/c(=C\c2ccc3c(c2)OCCO3)c(=O)n1CC(=O)NCC1CCCO1 (stereo unspecified)	inconclusive: 31.6 µM [inhibitor, partial curve]	
CCNc1nc(SC(C)C(=O)Nc2ccccc2)nc(N2CCOCC2)n1 (stereo unspecified)		inactive: 0.45%

SMILES	Potency	activity change, negative = inhibition
Cc1cccc(C2=NN(c3ccccc3)[C@H](CO)[C@H]2C)c1	inconclusive: 25.1 µM [inhibitor, partial curve]	
COc1ccc(N=C2S/C(=C\c3cc(C)n(C)c3C)C(=O)N2C)cc1	inconclusive: 10 µM [inhibitor, partial curve, poor fit]	
N#C/C(=C/c1ccc(N2CCCCC2)o1)c1cccc(F)c1	active: 10 µM	
COc1ccc(/C=C2\SC(=S)N(NC(=O)c3csc4c3CCCC4)C2=O)cc1	inconclusive: 15.8 µM [inhibitor, single point]	
COCCCNC(=O)Cn1nnc(-c2ccc(NC(=O)c3ccc(F)cc3)cc2)n1	inconclusive: 39.8 µM [inhibitor, single point]	
O=C(CSc1ccc2nnc(-c3cccc(F)c3)n2n1)NCC1CCCO1 (stereo unspecified)	inconclusive: 39.8 µM [inhibitor, single point]	
CCN(CC)c1ccc(C2C(C(=O)OC(C)C)C(=O)CC(C)(O)C2C(=O)OC(C)C)cc1 (stereo unspecified)		inactive: 1.74%
CCOC(=O)c1ccc(N=Cc2nc(-c3ccccc3)oc2OC(C)=O)cc1	inconclusive: 10 µM [inhibitor, partial curve]	
COc1ccc(-c2cc(C(=O)N3CCCc4ccccc43)no2)cc1		inactive: 1.09%
CC(C)(Oc1ccc(-c2cccc3ccccc23)cc1)C(=O)O		inactive: -7.64% [at 11.4 µM]
Cc1noc(/C=C/c2ccco2)c1S(=O)(=O)N1CCC(C(=O)N2CCc3ccccc3C2)CC1	inconclusive: 15.8 µM [inhibitor, partial curve, poor fit]	
Cc1c(CC(C)(C)C(=O)O)n(Cc2ccc(Cl)cc2)c2ccc(F)cc12	inconclusive: 39.8 µM [inhibitor, partial curve, poor fit]	
CCN(CC)C(=O)c1sc2nc(-c3cccs3)cc(-c3ccc(Cl)cc3)c2c1N	inconclusive: 20 µM [inhibitor, single point]	
O=C(N/N=C/c1ccc(O)c(O)c1)C1c2ccccc2Oc2ccccc21	inconclusive: 10 µM [inhibitor, partial curve]	
CCC(c1nnnn1Cc1ccco1)N(Cc1cc2cc(OC)ccc2[nH]c1=O)C1CCCCC1 (stereo unspecified)	inconclusive: 15.8 µM [inhibitor, partial curve]	
Cc1cccc(NC(=O)Cn2c(C)c(C#N)c3ccccc32)c1C	inconclusive: 39.8 µM [inhibitor, single point]	
CCC(C)n1cnc2c(c1=O)c1nc3ccccc3nc1n2Cc1ccc2c(c1)OCO2 (stereo unspecified)	inconclusive: 31.6 µM [inhibitor, single point]	
N#Cc1cc2c(nc1SCC(=O)N1CCCCC1)CCCCC2	inconclusive: 31.6 µM [inhibitor, single point]	
CCCCOc1ccc(CC(=O)NO)cc1	inconclusive: 3.16 µM [inhibitor, partial curve] and inconclusive: 15.8 µM [inhibitor, partial curve]	
CC(=O)Nc1sc2c(c1C(N)=O)CCCC2	inconclusive: 0.251 µM [inhibitor, full curve]	
